Source: patent publication US20260263442A1, “METHOD FOR TREATING L-DOPA-INDUCED DYSKINESIA USING BEFIRADOL” (Neurolixis, Inc., priority 2023, published 2026)

Assays:
[1] = test system: L-DOPA-induced dyskinesia (LID) in Parkinson's disease patients; assay: Unified Dyskinesia Rating Scale (UDysRS) after 150% L-DOPA challenge, Phase 2a study; settings: for UDysRS Part 3 + 4, Baseline / UDysRS Part 3 + 4, Δ / UDysRS Total, Baseline / UDysRS Total, Δ: on NLX-112
[2] = test system: patients with moderate to severe L-DOPA-induced dyskinesia (LID) in Parkinson's disease; assay: Patient highest titration dose, Phase 2a study; assay type: in vivo, human; settings: NLX-112 (n = 15)
Procedure: • Days 1-4 (0.25 mg/day): 1 tablet in the morning, none in the evening • Days 5-8 (0.5 mg/day): 1 tablet in the morning and 1 tablet in the evening • Days 9-12 (0.75 mg/day): 2 tablets in the morning, 1 tablet in the evening • Days 13-16 (1.0 mg/day): 2 tablets in the morning, 2 tablets in the evening • Days 17-20 (1.25 mg/day): 3 tablets in the morning, 2 tablets in the evening • Days 21-24 (1.5 mg/day): 3 tablets in the morning, 3 tablets in the evening • Days 25-28 (1.75 mg/day): 4 tablets in the morning, 3 tablets in the evening
• Days 29-42 (2 mg/day): 4 tablets in the morning, 4 tablets in the evening Down-Titration Period (2 Weeks, Down-Titration by 0.25 mg/Day Every 2 Days): • Days 43-44 (start of down-titration period [1.75 mg/day]) • Days 45-46 (1.5 mg/day) • Days 47-48 (1.25 mg/day) • Days 49-50 (1 mg/day) • Days 51-52 (0.75 mg/day) • Days 53-54 (0.5 mg/day) • Days 55-56 (0.25 mg/day)
Patients in the placebo arm followed the same dose escalation, constant dose and down-titration schedule, but would be taking the matching placebo tablets. Patients who have intolerable adverse events (AEs) during the 28-day up-titration period would be allowed to return to the previous tolerated dose at the discretion of the Investigator, or they may withdraw from the study if they so choose. A slow down-titration was used to reduce potential withdrawal symptoms.
Four patients dropped-out during the up-titration period, 3 on NLX-112 (all due to withdrawal of consent) and 1 on placebo (due to deep brain stimulation operation). All drop-outs were included in the Full Analysis Set (FAS) but were excluded from the Per Protocol Set (PPS). One additional placebo-patient was excluded from the PPS because of a protocol violation (use of gabapentin, prohibited medication) prior to unblinding. Evaluation of safety and tolerability was based on the FAS (N=27) while efficacy evaluation was based on the PPS (N=22).

[3] = test system: patients with moderate to severe L-DOPA-induced dyskinesia (LID) in Parkinson's disease; design: species or system human; settings: in vivo
Procedure: Blood pressure (systolic and diastolic) and pulse would be measured in sitting position after at least 5 minutes of rest and then again 3 minutes after standing upright to determine whether the patient has orthostatic hypotension (decrease in systolic blood pressure of at least 20 mm Hg or diastolic blood pressure of at least 10 mm Hg within 3 minutes of the patient standing up, compared to the blood pressure obtained while in the sitting position). At screening and baseline (Visit 1 and Visit 2), the investigator should collect 3 assessments, each taken 15 to 20 minutes apart, in order to obtain an average value. All measurements and the calculated average value should be recorded in the eCRF. At other visits, one assessment is sufficient. Respiratory rate would be assessed by routine methods. Body temperature would be measured orally using a digital thermometer. Any vital signs outside the normal ranges at each site would be judged as NCS or CS. The assessment would be recorded in the eCRF. Post-dose vital signs judged as “abnormal, clinically significant” by the Investigator would be reported as AEs. Vital signs (systolic/diastolic blood pressure, orthostatic blood pressure, pulse, respiratory rate and body temperature) would be summarized by treatment. Data would be presented with absolute and percent change from baseline.

[4] = Day 28, mean (SD), per-protocol set n = 15
[5] = Patient A, amantadine treatment 1 year
[6] = Patient B, amantadine treatment 2 years
[7] = Patient C, amantadine treatment 7 years
[8] = Patient D, amantadine treatment 11 years
[9] = Patient E, amantadine treatment 6 years
[10] = Visit 2 Baseline, Per protocol analysis set, n 15
[11] = Visit 6 Clinic Efficacy Visit (Day 28), Full analysis set, n 15
[12] = Visit 6 Clinic Efficacy Visit (Day 28), Per protocol analysis set, n 15
[13] = Visit 7 Clinic Efficacy Visit (Day 42), Full analysis set, n 15
[14] = Visit 7 Clinic Efficacy Visit (Day 42), Per protocol analysis set, n 15

Cc1ccc(CNCC2(F)CCN(C(=O)c3ccc(F)c(Cl)c3)CC2)nc1 [NLX-112]
UDysRS Part 3 sum of items, highest score of assessment sessions, change from baseline [1, 4]: significant reduction
UDysRS Parts 3 + 4, highest score of assessment sessions, change from baseline [1, 4]: −1.7 (4.3) points
NLX-112 group versus placebo group, change from baseline in UDysRS total score or total objective (Parts 3 and 4) score ([1]; Day 28 or Day 42): no significant differences
UDysRS Part 3 + 4, Baseline [1, 5]: 11
UDysRS Part 3 + 4, Δ [1, 5]: −6
UDysRS Total, Baseline [1, 5]: 18
UDysRS Total, Δ [1, 5]: −6
UDysRS Part 3 + 4, Baseline [1, 6]: 22
UDysRS Part 3 + 4, Δ [1, 6]: +3
UDysRS Total, Baseline [1, 6]: 43
UDysRS Total, Δ [1, 6]: −2
UDysRS Part 3 + 4, Baseline [1, 7]: 29
UDysRS Part 3 + 4, Δ [1, 7]: +2
UDysRS Total, Baseline [1, 7]: 44
UDysRS Total, Δ [1, 7]: +7
UDysRS Part 3 + 4, Baseline [1, 8]: 28
UDysRS Part 3 + 4, Δ [1, 8]: −11
UDysRS Total, Baseline [1, 8]: 39
UDysRS Total, Δ [1, 8]: −11
UDysRS Part 3 + 4, Baseline [1, 9]: 17
UDysRS Part 3 + 4, Δ [1, 9]: −6
UDysRS Total, Baseline [1, 9]: 31
UDysRS Total, Δ [1, 9]: −8
UDysRS Parts 1, 2, 3, and 4 most severe, Collected value, Median (Min, Max) ([1]; Visit 2 Baseline, Full analysis set, n 18): 31.0 (13, 47)
UDysRS Parts 1, 2, 3, and 4 most severe, Collected value, Median (Min, Max) [1, 10]: 31.0 (13, 47)
UDysRS Parts 3 and 4 average, Collected value, Median (Min, Max) [1, 10]: 13.00 (3.7, 27.0)
UDysRS Parts 3 and 4 most severe, Collected value, Median (Min, Max) [1, 10]: 14.0 (6, 29)
UDysRS Parts 1, 2, 3, and 4 average, Absolute change from baseline, Median (Min, Max) [1, 11]: −3.00 (−21.0, 7.3)
UDysRS Parts 1, 2, 3, and 4 most severe, Absolute change from baseline, Mean (SD) [1, 11]: −4.1 (9.3)
UDysRS Parts 1, 2, 3, and 4 most severe, Absolute change from baseline, Median (Min, Max) [1, 11]: −2.0 (−21, 11)
UDysRS Parts 1, 2, 3, and 4 most severe, Collected value, Median (Min, Max) [1, 11]: 28.0 (14, 55)
UDysRS Parts 3 and 4 average, Relative change from baseline (%), Median (Min, Max) [1, 11]: −20.0 (−88, 64) %
UDysRS Parts 3 and 4 most severe, Absolute change from baseline, Mean (SD) [1, 11]: −1.7 (4.3)
UDysRS Parts 3 and 4 most severe, Absolute change from baseline, Median (Min, Max) [1, 11]: −1.0 (−10, 7)
UDysRS Parts 3 and 4 most severe, Collected value, Median (Min, Max) [1, 11]: 12.0 (2, 36)
UDysRS Parts 1, 2, 3, and 4 average, Absolute change from baseline, Median (Min, Max) [1, 12]: −3.00 (−21.0, 7.3)
UDysRS Parts 1, 2, 3, and 4 most severe, Absolute change from baseline, Mean (SD) [1, 12]: −4.1 (9.3)
UDysRS Parts 1, 2, 3, and 4 most severe, Absolute change from baseline, Median (Min, Max) [1, 12]: −2.0 (−21, 11)
UDysRS Parts 1, 2, 3, and 4 most severe, Collected value, Median (Min, Max) [1, 12]: 28.0 (14, 55)
UDysRS Parts 3 and 4 average, Relative change from baseline (%), Median (Min, Max) [1, 12]: −20.0 (−88, 64) %
UDysRS Parts 3 and 4 most severe, Absolute change from baseline, Mean (SD) [1, 12]: −1.7 (4.3)
UDysRS Parts 3 and 4 most severe, Absolute change from baseline, Median (Min, Max) [1, 12]: −1.0 (−10, 7)
UDysRS Parts 3 and 4 most severe, Collected value, Median (Min, Max) [1, 12]: 12.0 (2, 36)
UDysRS Parts 1, 2, 3, and 4 most severe, Absolute change from baseline, Mean (SD) [1, 13]: −6.3 (7.0)
UDysRS Parts 1, 2, 3, and 4 most severe, Absolute change from baseline, Median (Min, Max) [1, 13]: −8.0 (−19, 7)
UDysRS Parts 1, 2, 3, and 4 most severe, Collected value, Median (Min, Max) [1, 13]: 24.0 (11, 51)
UDysRS Parts 1, 2, 3, and 4 most severe, Relative change from baseline (%), Mean (SD) [1, 13]: −19.0 (22.6) %
UDysRS Parts 3 and 4 most severe, Absolute change from baseline, Mean (SD) [1, 13]: −3.1 (4.2)
UDysRS Parts 3 and 4 most severe, Absolute change from baseline, Median (Min, Max) [1, 13]: −4.0 (−11, 3)
UDysRS Parts 3 and 4 most severe, Collected value, Median (Min, Max) [1, 13]: 11.0 (5, 31)
UDysRS Parts 3 and 4 most severe, Relative change from baseline (%), Mean (SD) [1, 13]: −21.0 (24.5) %
UDysRS Parts 1, 2, 3, and 4 average, Collected value, Median (Min, Max) [1, 14]: 23.00 (10.3, 47.7)
UDysRS Parts 1, 2, 3, and 4 most severe, Absolute change from baseline, Mean (SD) [1, 14]: −6.3 (7.0)
UDysRS Parts 1, 2, 3, and 4 most severe, Absolute change from baseline, Median (Min, Max) [1, 14]: −8.0 (−19, 7)
UDysRS Parts 1, 2, 3, and 4 most severe, Collected value, Median (Min, Max) [1, 14]: 24.0 (11, 51)
UDysRS Parts 1, 2, 3, and 4 most severe, Relative change from baseline (%), Mean (SD) [1, 14]: −19.0 (22.6) %
UDysRS Parts 3 and 4 most severe, Absolute change from baseline, Mean (SD) [1, 14]: −3.1 (4.2)
UDysRS Parts 3 and 4 most severe, Absolute change from baseline, Median (Min, Max) [1, 14]: −4.0 (−11, 3)
UDysRS Parts 3 and 4 most severe, Collected value, Median (Min, Max) [1, 14]: 11.0 (5, 31)
UDysRS Parts 3 and 4 most severe, Relative change from baseline (%), Mean (SD) [1, 14]: −21.0 (24.5) %
Effect on LID ([1]; apparently treatment-duration dependent): significantly reduced LID
UDysRS Part 3 sum of items, average of 3 assessments, NLX-112 group versus placebo group ([1]; day 28 and day 42): significantly greater change from baseline
Patients with highest titration dose 1.0 mg, % [2]: 6.7%
Patients with highest titration dose 1.75 mg, % [2]: 13.3%
Patients with highest titration dose 2.0 mg, % [2]: 80%
Patients with abnormal vital signs assessed as clinically significant ([3]; human, 8 weeks): 2 patients
Patients with abnormal vital signs assessed as not clinically significant ([3]; human, 8 weeks): 12 (67%) n (%)
Patients with occurrences of orthostatic hypotension ([3]; human, 8 weeks): 13 out of 18
Vital signs, changes [3]: no changes in HR, BP, body temperature
